Screen size: about 44,000 compounds; about 340 (0.77%) were called active. Roughly 5% stayed inconclusive and do not appear here. Calls follow the shape of the dose curve; as a rule, active = well fitted inhibition curve with a large enough effect; inconclusive = small, poorly fitted or top-dose-only effect; inactive = flat fitted curve, though single readings scatter. This is one part of the list.
Experiment: Acumen qHTS Assay for Inhibitors of the mTORC1 Signaling Pathway in MEF (Tsc2-/-, p53-/-) Cells: Sytravon;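 also: plate controls were DMSO for no effect and rapamycin for full effect; nearly all actives have a fitted effect of over 50% in size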
Settings: phospho-rpS6 immunofluorescence/PI, 24 h; series mostly up to 38.3 µM; activity change, negative = inhibition: at the top concentration
In short: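 Readout is phospho-S6 Alexa 488 signal normalized to PI per well, reported as % active cells with thresholds set from rapamycin (7.5 nM) and DMSO controls. Cells: Tsc2-/-, p53-/- MEFs, 24 hrs compound at 37 C; PI cell number serves as viability.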

Activity change, negative = inhibition, inactive:
COc1ccc(-c2noc(CNC(=O)c3ccco3)n2)cc1 4.47%
O=C(NCc1ccco1)c1ccc2c(c1)N(Cc1cccc(Cl)c1)C(=O)c1ccccc1S2(=O)=O -0.898%
Cc1ccc(CNC(=O)CSc2cc(C)[nH]c(=O)n2)cc1 0.108%
CC1CCN(C(=O)CSc2nc(-c3ccccc3)no2)CC1 -5.76%
COc1cc(C(=O)N2CCC(c3nc4ccccc4o3)CC2)cc(OC)c1OC 0.493%
Cc1c(NS(=O)(=O)c2ccccc2)cc(C(C)C)c(O)c1S(=O)(=O)c1ccc(Cl)cc1 7.12%
COc1ccc(C(c2c(O)cc(C)n(Cc3ccco3)c2=O)N2CCCCC2)cc1OC (stereo unspecified) -7.52%
COc1cc(Cl)c(C)cc1NC(=O)c1ccc2c(Cl)c3c(nc2c1)CCC3 1.73%
CCOc1cccc(CC(=O)N2CCc3c([nH]c4ccccc34)C2c2ccc(Cl)cc2)c1OCC (stereo unspecified) -5.73%
CCOc1ccccc1CNC(=O)c1cnc2sc(N3CCCCCC3)nn2c1=O -2.24%
CCOc1ccccc1NC(=O)c1c(NC(=O)c2ccccc2)sc2c1CCCC2 1.81%
CCc1ccc(Oc2c(C(F)(F)F)oc3c(CN4CCN(C)CC4)c(O)ccc3c2=O)cc1 -11.7%
CCc1ccc(S(=O)(=O)NCCc2csc3nc(-c4ccccc4)nn23)s1 -3.55%
CC(C)(C)c1ccc(-c2nc3cc(NC(=O)c4cccc(Br)c4)ccc3o2)cc1 7.12%
O=C(NCCc1csc2nc(-c3ccc(F)cc3)nn12)c1cccc(C(F)(F)F)c1 -12.3%
COc1cccc(CNC(=O)Cn2ncc3c4ccccc4n(Cc4ccccc4)c3c2=O)c1 -6.02%
COc1ccc(-n2ccn(CC(=O)NCCc3ccccc3)c(=O)c2=O)cc1OC -0.757%
COc1cccc(C(=O)NCc2nc(-c3ccccc3)no2)c1OC -9.33%
Cn1c(=O)c2c(ncn2CC(=O)Nc2cccc(C(F)(F)F)c2)n(C)c1=O -14.8%
Cc1cccc(NC(=O)CCc2c(C)nc3nc(CNC(=O)c4cccc(F)c4)nn3c2C)c1 -1.02%
COc1ccc(Cn2c(SCc3ccc(C(=O)NC4CCCC4)cc3)nc3cccnc32)cc1 -0.265%
COc1ccc(-c2noc(CSc3nnc(-c4ccncc4)n3-c3ccc(C)cc3)n2)cc1OC -11.9%
O=C(Cn1c(=O)n(Cc2ccc3c(c2)OCO3)c(=O)c2oc3ccccc3c21)Nc1ccc(F)cc1 -2.89%
CCn1cc(CNC(=O)c2cc(-c3ccc(C)c(C)c3)nc3ccccc23)c(C)n1 -21.4%
CC1CCCCN1C(=O)Cn1c(SCC(=O)N(C)c2ccccc2)nc2ccccc21 (stereo unspecified) 0%
Cc1ccc(NC(=O)c2ccc(=O)n(CC(=O)Nc3cccc(C)c3)n2)cc1 -3.31%
CCOc1ccccc1CNS(=O)(=O)c1ccc(-c2coc(C)n2)cc1 -6.37%
Cc1cccc(C(c2sc3nc(-c4ccco4)nn3c2O)N2CCN(c3ccccc3)CC2)c1 (stereo unspecified) 0.0759%
Cc1ccc(NC(=O)c2ccc(NC(=O)N3CCSc4nc(C)cc(C)c43)cc2)c(Cl)c1 -2.88%
O=C(Cn1nc2c(cc1=O)CCCC2)Nc1ccccc1C(F)(F)F -7.78%
COC(=O)c1ccccc1NC(=O)c1cc2nc(-c3ccc(OC)cc3)cc(C(F)(F)F)n2n1 4.46%
Cc1ccc(C)c(NC(=O)c2ccc3nc(CCc4ccccc4)oc3c2)c1 -11%
O=C(CSc1n[nH]c(-c2ccccc2Cl)n1)N1CCN(c2ccccc2)CC1 -14.5%
CCOC(=O)CNS(=O)(=O)c1cc(-c2nnc(Nc3cccc(O)c3)c3ccccc23)ccc1C -8.54%
Cc1cc(NC(=O)c2cccs2)cc(-c2nc3cc(Cl)ccc3o2)c1O 7%
CCn1cc2nc(SCC(=O)Nc3ccc(C)cc3C)n(Cc3ccc(C)cc3)c(=O)c2n1 -4.42%

— PubChem BioAssay AID493208 (National Center for Advancing Translational Sciences (NCATS), 2011)
